{"source": "the supplement of paper PMC8728848", "note": "Many of the other results were omitted from the sample, so the strongest signals are more common in it than they were."}
{"system": "Gal3S(b1-3)[Fuc(a1-4)]GlcNAc", "experiment": "glycan array binding signal (z-score within array); higher = stronger binding", "conditions": "glycan notation: IUPAC condensed, linker removed", "in_short": "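Arrays were curated from the Consortium for Functional Glycomics database, 3228 in total, and kept only where the protein sequence was available. Binding is expressed as a within-array Z-score. This score was averaged across arrays of the same protein sequence at different concentrations or buffers and across linkers, and negative values can be read as non-binding.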"}
{"substance": "FGF2 (chain not printed)", "glycan array binding signal (z-score)": 0.658}
{"substance": "Thrombomodulin Extracellular (Homo sapiens) (chain not printed)", "glycan array binding signal (z-score)": -0.41}
{"substance": "Gal 8 long (Homo sapiens) (chain not printed)", "glycan array binding signal (z-score)": -0.334}
{"substance": "STIM-3 (Mus musculus) (chain not printed)", "glycan array binding signal (z-score)": 3.34}
